According to PubChem BioAssay AID504332 (National Center for Advancing Translational Sciences (NCATS), 2011):
Values joined by “and” are separate entries in the source; they are usually repeats but may differ in a detail not shown here. Equal values may be shown once. In all, about 350,000 compounds went through this assay and about 31,000 (8.9%) were called active. Inconclusive means that the source gave no clear call. Such entries were picked first, then a sample of the others. The call rests on the fitted dose curve; in most records, active means well fitted inhibition curve with a large enough effect; inconclusive means small, poorly fitted or top-dose-only effect; inactive means no such curve, though single readings can be large or run the other way. Potencies of inconclusive entries are doubtful fits and often do not repeat. Some structures have more than one record in an assay (separate samples or runs), and their calls can disagree.

Target: Histone-lysine N-methyltransferase EHMT2 (Homo sapiens) (UniProt Q96KQ7)
Assay: qHTS Assay for Inhibitors of Histone Lysine Methyltransferase G9a; further: nearly all actives have a fitted effect of over 75% in size
Conditions: G9a H3K9 monomethylation, AlphaScreen, 2 h; activity, negative = inhibition: at 59 µM (top of the series) unless noted
Procedure, shortened: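 AlphaScreen read-out: biotin-H3K9 peptide (500 nM) methylation by 20 nM enzyme with 20 uM SAM, 2 h at room temperature after 15 min compound preincubation; anti-monomethyl H3K9 antibody plus donor/acceptor beads, 10 min dark.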
On the % scale 0 is the no-effect control and ±100 the full control effect; potency means the concentration at half of the fitted maximal effect; tags describe the fitted curve by direction and shape.

UniProt Q96KQ7, sequence (Q96KQ7 whole entry, looked up): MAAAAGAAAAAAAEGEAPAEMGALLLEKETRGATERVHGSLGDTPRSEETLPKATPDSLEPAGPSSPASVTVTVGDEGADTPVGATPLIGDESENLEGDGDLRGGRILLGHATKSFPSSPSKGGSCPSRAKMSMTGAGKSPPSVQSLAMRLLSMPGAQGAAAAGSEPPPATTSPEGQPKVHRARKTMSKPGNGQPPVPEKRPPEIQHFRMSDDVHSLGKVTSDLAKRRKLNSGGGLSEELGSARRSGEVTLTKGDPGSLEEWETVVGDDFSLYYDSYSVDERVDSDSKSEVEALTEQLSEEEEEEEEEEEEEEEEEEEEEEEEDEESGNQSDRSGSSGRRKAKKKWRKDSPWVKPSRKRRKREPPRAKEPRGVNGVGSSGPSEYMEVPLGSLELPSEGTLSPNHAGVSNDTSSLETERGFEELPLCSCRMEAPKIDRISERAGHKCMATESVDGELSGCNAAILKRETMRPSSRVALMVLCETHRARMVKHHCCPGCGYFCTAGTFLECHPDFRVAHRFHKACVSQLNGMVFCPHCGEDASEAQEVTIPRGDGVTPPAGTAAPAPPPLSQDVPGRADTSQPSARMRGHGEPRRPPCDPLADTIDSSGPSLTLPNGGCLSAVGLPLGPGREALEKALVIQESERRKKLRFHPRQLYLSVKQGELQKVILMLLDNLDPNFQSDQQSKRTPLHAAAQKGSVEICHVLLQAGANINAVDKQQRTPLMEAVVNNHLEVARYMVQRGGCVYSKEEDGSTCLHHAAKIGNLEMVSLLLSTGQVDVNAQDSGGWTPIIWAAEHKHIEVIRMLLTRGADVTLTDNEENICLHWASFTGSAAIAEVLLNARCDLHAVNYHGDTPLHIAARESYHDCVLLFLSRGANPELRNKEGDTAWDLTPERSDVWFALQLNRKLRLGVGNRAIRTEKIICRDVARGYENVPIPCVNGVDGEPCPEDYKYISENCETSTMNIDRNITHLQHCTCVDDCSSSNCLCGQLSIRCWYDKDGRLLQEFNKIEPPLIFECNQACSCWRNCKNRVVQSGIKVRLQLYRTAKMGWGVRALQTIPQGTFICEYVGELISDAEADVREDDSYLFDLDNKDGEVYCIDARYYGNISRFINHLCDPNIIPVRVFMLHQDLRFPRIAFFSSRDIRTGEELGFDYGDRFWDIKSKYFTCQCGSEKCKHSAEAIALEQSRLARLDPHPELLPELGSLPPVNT

Row | SMILES | Potency | activity, negative = inhibition
1 | COc1ccc(CC(=O)N/N=C/c2cccn2-c2ccc([N+](=O)[O-])cc2)cc1OC | inconclusive: 22.4 µM [inhibitor, single point] | –
2 | O=C1CCN(C(=O)Nc2ccccc2)N1 | active: 7.94 µM | –
3 | CN(CC(=O)Nc1cccc(S(=O)(=O)NC2=NCCC2)c1)Cc1ccccc1Cl | inconclusive: 0.0891 µM [inhibitor, partial curve, poor fit] | –
4 | COC(=O)c1sc(C(=O)OC)c(C(=O)OC)c1C(=O)OC | inconclusive: 89.1 µM [inhibitor, single point] | –
5 | O=C(Nc1cccc([N+](=O)[O-])c1)c1cnccn1 | – | inactive: 12.7%
6 | CCOC(=O)CSC1=C(C#N)C(c2ccc(Cl)cc2)C(C(=O)OC)C(=O)N1 (stereo not given) | – | inconclusive: -86.6% [inhibitor]
7 | CC(C)c1nc(N2CCN(C(=O)c3ccco3)CC2)c2c3c(sc2n1)CCCC3 | – | inactive: -22.4%
8 | COc1cc(/C=N/N=C(N)N)ccc1OCc1ccccc1Cl | inconclusive: 44.7 µM [inhibitor, partial curve] | –
9 | COc1cccc(N2CCN(C3CC(=O)N(c4ccc(Cl)cc4)C3=O)CC2)c1 (stereo not given) | – | inconclusive: -59.8% [inhibitor]
10 | OCCN1CCN(C(c2cccs2)c2ccc3cccnc3c2O)CC1 (stereo not given) | inconclusive: 1.41 µM [inhibitor, single point] | –
11 | Cc1ccccc1C(=O)Nc1cccc(-c2ccc3nncn3n2)c1 | inconclusive: 63.1 µM [inhibitor, partial curve, poor fit] | –
12 | COc1ccc(S(=O)(=O)NCC(c2ccc3c(c2)OCO3)N2CCN(C)CC2)cc1OC (stereo not given) | active: 50.1 µM | –
13 | Cc1ccc(Oc2nc(CN3CCOCC3)nc3sc4c(c23)CCC(C)C4)cc1 (stereo not given) | active: 79.4 µM | –
14 | Cc1cc(=O)oc2cc(OCC(=O)OC(C)C(=O)NC3CCCC3)ccc12 (stereo not given) | inconclusive: 63.1 µM [inhibitor, partial curve, poor fit] | –
15 | CCOP(=O)(OCC)/C(C#N)=C/c1c[nH]c2ccccc12 | – | inactive: 8.86% [at 102 µM]
16 | O=C1CN(C(=O)c2cc([N+](=O)[O-])ccc2Cl)C(c2ccc(F)cc2)c2cc(F)ccc2N1 (stereo not given) | inconclusive: 28.2 µM [inhibitor, single point] | –
17 | Cc1cc(C)c(NC(=O)c2cc(S(=O)(=O)N3CCC4(CC3)OCCO4)ccc2F)c(C)c1 | – | inactive: 11.7%
18 | CCOc1ccc(-c2cc(CCCC(=O)Nc3cc(OC)ccc3OC)no2)cc1 | inconclusive: 7.08 µM [inhibitor, single point] | –
19 | COC(=O)c1ccc(NC(=O)CC2C(=O)N(c3cccc(OC)c3)C(=O)N2Cc2cccs2)cc1 (stereo not given) | – | inactive: -5.25%
20 | O=C(O)C1C2CCC(O2)C1C(=O)Nc1cnn(Cc2ccccc2)c1 (stereo not given) | inconclusive: 39.8 µM [inhibitor, single point] | –
21 | Cc1[nH]nc2c1C(c1ccc(-c3ccc(Cl)cc3)o1)C(C#N)=C(N)O2 (stereo not given) | active: 79.4 µM | –
22 | CCCNC(=O)c1c[nH]c2ccc(S(=O)(=O)N(C)c3ccc(OCC)cc3)cc2c1=O | – | inactive: -30.5%
23 | COc1cc(Cl)c(S(=O)(=O)NCCc2c(C)[nH]c3c(C)cccc23)cc1Cl | – | inactive: -27%

Row | SMILES | Potency | activity, negative = inhibition
24 | O=C(Nc1ccc2c(c1)OCO2)c1cccs1 | inconclusive: 39.8 µM [inhibitor, partial curve, poor fit] | –
25 | O=C(NCCN1C(=O)S/C(=C\c2cccnc2)C1=O)c1cc(S(=O)(=O)N2CCOCC2)ccc1F | active: 39.8 µM | –
26 | c1ccc(C2CCC(N3CCN(c4ccccc4)CC3)CC2)cc1 (stereo not given) | active: 56.2 µM | –
27 | O=c1cc(C(F)(F)F)[nH]c(=O)n1C1CCCCC1 | inconclusive: 3.98 µM [inhibitor, single point] | –
28 | COc1ccc([C@@H](OC)[C@@]2(Cc3ccc(O)cc3)N=C(N)N(C)C2=O)cc1 | – | inactive: 10.2% [at 0.501 µM]
29 | CCOc1cc2[nH]c(=S)n(Cc3ccc(C(=O)NCCCOC)cc3)c(=O)c2cc1OCC | – | inactive: 12.7% [at 102 µM]
30 | COc1cccc(C2C(C(=O)Nc3ccc(C)cc3C)=C(C)Nc3c(C(=O)Nc4ccccc4)cnn32)c1 (stereo not given) | inconclusive: 1 µM [inhibitor, partial curve, poor fit] | –
31 | Cc1c(CCO)c(=O)oc2n[nH]c(-c3ccccc3)c12 | – | inactive: -9.31% [at 102 µM]
32 | COc1ccc(C2=NN(C(C#N)c3ccc(OC)c(OC)c3)C(c3ccccc3)C2)cc1 (stereo not given) | inconclusive: 12.6 µM [inhibitor, partial curve] | –
33 | COc1ccc(Nc2ccc(N3C(=O)CCC3=O)cc2[N+](=O)[O-])cn1 | – | inactive: 9.18% [at 102 µM]
34 | O=C(O)c1ccc(-c2nc(-c3ccc(Cl)cc3Cl)cs2)cc1 | inconclusive: 22.4 µM [inhibitor, full curve] | –
35 | CC1CCCN(C(=O)CSc2c3c(nc4cc(Cl)ccc24)CCCC3)C1 (stereo not given) | – | inactive: -33.6%
36 | CCCCC/C=C\CC(O)/C=C/c1cccc(CC(O)CCCCO)n1 (stereo not given) | inactive and active: 398 nM and active: 16.8 µM | –
37 | C=CCOc1ccc(C2c3c(oc4ccccc4c3=O)C(=O)N2CCCN2CCOCC2)cc1 (stereo not given) | active: 50.1 µM | –
38 | Cc1ccc(S(=O)(=O)N2CCCCC2)cc1NC(=O)CN1C(=O)CN(C)C1=O | – | inactive: -30.9% [at 102 µM]
39 | COc1ccc(/C=C/C(=O)c2ccccc2)cc1COc1ccc(F)cc1 | – | inactive: 40.7% [at 102 µM]
40 | CCOC(=O)c1sc(N(C)C)nc1-c1ccccc1 | inconclusive: 39.8 µM [inhibitor, single point] | –
41 | O=S(=O)(NCc1ccccn1)c1cc(OCC(F)(F)F)ccc1OCC(F)(F)F | inconclusive: 50.1 µM [inhibitor, partial curve] | –
42 | CC1(C)C(=O)NCCN1C(=O)CC1C(=O)NCCN1CC(c1ccccc1)c1ccccc1 (stereo not given) | inconclusive: 35.5 µM [inhibitor, partial curve] | –
43 | COc1ccc(S(=O)(=O)N2CCC(C(=O)Nc3ccc(Oc4ccccc4)cc3)CC2)cc1 | – | inactive: -0.673%
44 | O=C(O)c1cccnc1SC1CC(=O)N(c2cccc3ccccc23)C1=O (stereo not given) | inconclusive: 31.6 µM [inhibitor, partial curve] | –
45 | CCN(CC)CCOc1ccc2c(c1)C(=NO)c1cc(OCCN(CC)CC)ccc1-2 | inconclusive: 3.98 µM [inhibitor, single point] | –
